Patent US8501450B2, “Hepatitis C virus variants” (priority 2005, dated 2013)

Columns and labels:
mutant HCV protease V36M = biological target: T1, mutant HCV protease V36M (Hepatitis C virus genotype 1a, UniProt P27958, A1027M/V1062M); format: biochemical; conditions: apparently fold change vs wild-type
T1 construct: A DNA fragment encoding Met^1-Ser^181 of the HCV NS3 protease was amplified; made in house; host or cells: E. coli BL21 (DE3)

[1] = biological target: T2, mutant HCV protease V36M + R155K (Hepatitis C virus genotype 1a, UniProt P27958, R1181K/V1062M); format: biochemical; conditions: apparently fold change vs wild-type
T2 construct: A DNA fragment encoding Met^1-Ser^181 of the HCV NS3 protease was amplified; made in house; host or cells: E. coli BL21 (DE3)

Structure (SMILES)	Resistance, Enzyme Assay (mutant HCV protease V36M)	Resistance, Enzyme Assay [1]
CC(C)(C)OC(=O)N[C@H]1CCCCC/C=C\[C@@H]2C[C@@]2(C(=O)NS(=O)(=O)C2CC2)NC(=O)[C@@H]2C[C@@H](OC(=O)N3Cc4cccc(F)c4C3)CN2C1=O [ITMN-191]	1.9	220
COc1ccc2c(O[C@@H]3C[C@H]4C(=O)N[C@]5(C(=O)O)C[C@H]5/C=C\CCCCC[C@H](NC(=O)OC5CCCC5)C(=O)N4C3)cc(-c3csc(NC(C)C)n3)nc2c1 [BILN 2061]	0.6	>250
CC(C)(C)NC(=O)N[C@H](C(=O)N1C[C@H]2[C@@H]([C@H]1C(=O)NC(CC1CCC1)C(=O)C(N)=O)C2(C)C)C(C)(C)C (stereo partly drawn) [SCH 503034]	4.4	39
